Source: PubChem BioAssay AID686979 (National Center for Advancing Translational Sciences (NCATS), 2013)
Screen size: about 420,000 compounds; about 50,000 (12%) were called active. The inconclusive results got no clear call from the source; some entries with a clear call stand among them for comparison. Calls come from the whole dose curve; as a rule, active = well fitted inhibition curve with a large enough effect; inconclusive = small, poorly fitted or top-dose-only effect; inactive = flat fitted curve, though single readings scatter. No potency is given beside an inconclusive call; the fits are too rough.

Assay: qHTS for Inhibitors of human tyrosyl-DNA phosphodiesterase 1 (TDP1): qHTS in cells in presence of CPT; note: nearly all actives have a fitted effect of over 55% in size
Conditions: chicken DT40 Tdp1-/-;hTDP1 cells + 20 nM CPT, ATP luminescence, 48 h; activity change, negative = growth inhibition: at 46.2 µM (top of the series) unless noted
How it was run: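 Cell growth measured by CellTiter-Glo luminescence after a minimum 48 h, 37 C compound exposure with 20 nM CPT in Tdp1-knockout DT40 cells stably expressing hTDP1, seeded 400/well; qHTS titration format.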
% is set by controls: 0 for no effect and ±100 for the full control effect; potency is the fitted concentration of half-maximal effect; tags give direction and shape of the fitted curve.

| SMILES | Potency | activity change, negative = growth inhibition |
| --- | --- | --- |
| CCOc1ccc(NC(=O)c2cccc3ccccc23)cc1 | active: 11.6 µM |  |
| N#Cc1cc2sc3nnc(-c4ccncc4)n3c2cc1C#N | inconclusive [inhibitor, single point] |  |
| CCOC(=O)C1(C)CCCN(C(=O)c2ccc(-c3ccccc3)cc2)C1 (stereo not given) | inconclusive [inhibitor, single point] |  |
| CCCN1C(=S)c2ccccc2C1c1ccccc1 (stereo not given) | inactive |  |
| COC(=O)c1ccccc1S(=O)(=O)N1CCC(C(=O)OCC(=O)c2ccccc2OC)CC1 |  | inconclusive: -30.4% [inhibitor] |
| CC1=CN2C(=N)/C(=C\c3cn(CCCOc4ccccc4)c4ccccc34)C(=O)N=C2S1 | active: 14.6 µM |  |
| CCCn1c(SCC(=O)c2cc(OC)ccc2OC)nnc1C(C)C | active: 15.8 µM |  |
| Cc1ccc(C2=NOC3(CC(=O)N(c4ccc(C)cc4)C3=O)C2)cc1 (stereo not given) | inactive |  |
| CC1=C(C(=O)OCCNC(=O)c2ccccc2O)C(c2ccccc2[N+](=O)[O-])C(C(=O)OCC2CCCO2)=C(C)N1 (stereo not given) | active: 18.4 µM |  |
| CCOC(=O)Cc1nnc2c(Nc3ccc(Cl)cc3)nc3nonc3n12 | inconclusive [inhibitor, single point] |  |
| O=C(NC(=S)Nc1nc(-c2ccccc2)cs1)c1cccs1 | inactive |  |
| Cc1cccc(C(=O)NCN2CCN(c3ccccc3C#N)CC2)c1 | inactive |  |
| Cc1ccc(CNC(=O)CN2C(=O)c3ccccc3S2(=O)=O)cc1 | inactive |  |
| CCOC1=C2[C@@H](CN(S(=O)(=O)c3ccc(C)cc3)[C@H]2c2ccc(CC)cc2)[C@H]2C(=O)N(C)C(=O)[C@H]2C1 | inconclusive [inhibitor, single point] |  |
| COC(=O)c1cc(COc2ccc3oc(C)c(C(=O)OC)c3c2)c(C)o1 | inconclusive [inhibitor, single point] |  |
| O=C(NCc1ccco1)C1(c2ccc(Cl)cc2)CCCC1 | inconclusive [inhibitor, partial curve, poor fit] |  |
| COCc1ccc(C(=O)Nc2cccc(S(=O)(=O)N(C)c3ccccc3)c2)cc1 | active: 18.4 µM |  |
| CCc1ccc(CNC(=O)c2c(C)oc3ncnc(N4CCOCC4)c23)cc1 | active: 13 µM |  |
| COc1cccc(C(=O)Nc2c(C(=O)N3CCN(c4ccc(F)cc4)CC3)oc3ccccc23)c1 | inconclusive [inhibitor, full curve, poor fit] |  |
| CCCCC(CC)C(=O)Nc1ccccc1C(=O)NC(C)C (stereo not given) | inconclusive [inhibitor, single point] |  |
| COc1cccc(NC(=O)c2cc(-c3ccc(C)o3)nc3ccccc23)c1 | inconclusive [inhibitor, single point] |  |
| CC(=O)Nc1ccc(Oc2nc(-c3ccccn3)nc3ccccc23)cc1 | inconclusive [inhibitor, single point] |  |
| CC(C)c1ccc(Nc2cc(C(=O)NC3CCCCC3)c3ccccc3n2)cc1 | active: 10.3 µM |  |
| CCc1cccc(-n2c(=O)c3cccnc3n2CC(=O)Nc2ccc(F)c(C)c2)c1 | inconclusive [inhibitor, single point] |  |

| SMILES | Potency | activity change, negative = growth inhibition |
| --- | --- | --- |
| CCc1nc(SCC(=O)N2CCc3ccccc32)c2oc3ccccc3c2n1 | inactive |  |
| Cc1ccc2c(c1)C1CN(C)CCC1N2Sc1ccccc1[N+](=O)[O-] (stereo not given) | inconclusive [inhibitor, single point] |  |
| C[C@]12CCC3c4ccc(O)cc4CCC3C1CCC2OC(=O)CCC1CCCC1 (stereo not given in full) | inactive |  |
| COc1cccc(NC(=O)CN(C)C(=O)CNC(=O)c2sc3ccccc3c2Cl)c1 | inconclusive [inhibitor, single point] |  |
| CC(C)Cc1ccc(C(C)C(=O)OCC(=O)c2c[nH]c3ccccc23)cc1 (stereo not given) | active: 10.3 µM |  |
| CCc1ccccc1OCC(=O)Nc1ccc(S(=O)(=O)Nc2nc(C)cc(C)n2)cc1 | inactive |  |
| COc1ccc(NC(=O)CN(c2cc(C)cc(C)c2)S(=O)(=O)c2c(C)noc2C)cc1OC | inconclusive [inhibitor, single point] |  |
| COc1ccc2nc3n(c(=O)c2c1)-c1cc2ccccc2cc1C(=O)NC3Cc1ccc(O)cc1 (stereo not given) | inconclusive [inhibitor, single point] |  |
| C=CCc1c(C)nc(C)nc1N/N=C/c1ccccc1 | inconclusive [inhibitor, single point] |  |
| CCOc1ccccc1-n1nnc(-c2nsc(NC(=O)c3ccc(C)cc3)n2)c1C | inconclusive [inhibitor, partial curve, poor fit] |  |
| CC1=C(C(=O)N(C(C)C)C(C)C)CC(CC(=O)NC2CCCC2)C(=O)N1Cc1ccc(C(C)(C)C)cc1 (stereo not given) | active: 20.6 µM |  |
| COCC(=O)Nc1cc(Sc2ccccc2)ccc1N=C(NC(=O)OC)NC(=O)OC | inconclusive [inhibitor, single point] |  |
| COc1ccccc1NC(=O)CSc1nc(-c2ccc(C(C)(C)C)cc2)c(C#N)c(=O)[nH]1 | inactive |  |
| COc1ccc(C(=O)NCCc2nnc3ccc(SCC(=O)N4CCOCC4)nn23)cc1 | inactive |  |
| COc1cccc(Cn2c(=O)cnc3cnc(N(C)C)nc32)c1 | inconclusive [inhibitor, single point] |  |
| COc1ccc(OCc2nnc(SCC(=O)NC3CC3)n2C)cc1 | inactive |  |
| S=C(NCCc1ccccc1)N/N=C/c1cccs1 | inconclusive [inhibitor, single point] |  |
| O=C(NCCn1ccc2ccccc21)c1ccc(Cl)cc1 | inconclusive [inhibitor, single point] |  |
| COc1ccccc1CNC(=O)N1CCN(c2ccccc2)CC1 | inconclusive [inhibitor, single point] |  |
| COc1ccccc1CCNc1ncnc2sc(C(=O)N3CCCN(C=O)CC3)c(C)c12 | inconclusive [inhibitor, single point] |  |
| Oc1ccc(CNc2ccccc2F)c2cccnc12 | active: 2.06 µM |  |
| Cn1c(=O)c2c(=O)cc(NNC(=O)CC#N)[nH]c2n(C)c1=O | inconclusive [inhibitor, single point] |  |
| CCOC(=O)C1CCCN(C(=O)c2ccc(OC)cc2)CC1 (stereo not given) | inactive |  |
| COc1ccc(CCN2CCCC(CN(C)Cc3cccc(OC)c3)C2)cc1 (stereo not given) | inconclusive [inhibitor, single point] |  |

| SMILES | Potency | activity change, negative = growth inhibition |
| --- | --- | --- |
| COc1ccc(N2CCN(c3oc(COc4ccccc4Cl)nc3C#N)CC2)cc1 | inconclusive [inhibitor, single point] |  |
| CC(=O)N1CCN(S(=O)(=O)c2cccc(C(=O)N3CCN(S(=O)(=O)c4c(C)c(C)cc(C)c4C)CC3)c2)CC1 | inconclusive [inhibitor, single point] |  |
| CC(C)n1nnnc1SCC(=O)N(C)C1CCS(=O)(=O)C1 (stereo not given) | inactive |  |
| Cc1ccccc1OCc1nc2ccc(S(=O)(=O)N3CCOCC3)cc2[nH]1 | inconclusive [inhibitor, partial curve] |  |
| Cc1ccc2nc(SCc3nc4c(cnn4-c4ccccc4)c(=O)[nH]3)[nH]c2c1 | active: 20.6 µM |  |
| CCOC(=O)C1=C(c2ccccc2)NC(N)=NC1c1ccc(OCc2ccc(Cl)cc2)c(OC)c1 (stereo not given) | active: 23.1 µM |  |
| COc1ccc(/C=C/C(=O)Nc2nc3n(n2)C(c2ccc(F)cc2)C=C(c2ccccc2)N3)cc1 (stereo not given) | active: 5.17 µM |  |
| COc1ccc(NC(=O)Cn2c(=O)n(Cc3nc(-c4ccccc4)no3)c(=O)c3ccccc32)cc1Cl | inactive |  |
| O=[N+]([O-])c1ccc(OC/C=C2\Oc3ccc([N+](=O)[O-])cc3C2N2CCOCC2)cc1 (stereo not given) | inconclusive [inhibitor, single point] |  |
| CC(=O)Oc1cc2cccc(OC(C)=O)c(=O)c2c(OC(C)=O)c1OC(C)=O | active: 4.61 µM |  |
| COc1ccc(N2CCN(C(=O)c3ccc(NS(=O)(=O)c4cccs4)cc3)CC2)cc1 | inconclusive [inhibitor, partial curve, poor fit] |  |
| Cc1ccnc(NC(=O)CCC(=O)N(CC(=O)NC(C)(C)C)Cc2ccc3c(c2)OCO3)c1 | inconclusive [inhibitor, partial curve, poor fit] |  |
| Cc1ccc(S(=O)(=O)N2CCN(C(=O)C(O)c3ccccc3)CC2)cc1 (stereo not given) | inactive |  |
| O=C(CSc1ccccn1)N/N=C/c1cc([N+](=O)[O-])ccc1O | inconclusive [inhibitor, single point] |  |
| CCOC(=O)N1CCC(NC(=O)c2ccc3c(c2)N(CC)CCS3)CC1 | active: 20.6 µM |  |
| COc1ccc(-n2c(=S)[nH]c3cc(C(=O)Nc4ccc(C)c(F)c4)ccc3c2=O)c(OC)c1 | inconclusive [inhibitor, single point] |  |
| C=CCN1C(=O)C(=O)N(CC(=O)NCC(=O)Nc2ccc(F)c(F)c2F)C1=O | inactive |  |
| O=C1C2C3C=CC(C3)C2C(=O)N1Cc1cccnc1 (stereo not given) | inactive |  |
| C[C@H]1COc2cc(N3CC[C@H](O)C3)ccc2S(=O)(=O)N1 | inactive |  |
| Cn1cnc(S(=O)(=O)N2CCCC(c3cc(C(=O)Nc4ccc(F)c(Cl)c4)no3)C2)c1 (stereo not given) | inconclusive [inhibitor, single point] |  |
| CCOC(=O)Cc1csc(N/C(=N/S(=O)(=O)c2ccc(Cl)cc2)c2ccccc2)n1 | inconclusive [inhibitor, single point] |  |
| C#CCSc1nc2ccccc2n1C(=O)c1ccc(S(=O)(=O)N2CCCCC2)cc1 | inactive |  |
